Measured values from PubChem BioAssay AID1508624 (National Center for Advancing Translational Sciences (NCATS), 2021).
Among all 48,000 compounds or so, about 120 (0.25%) were called active. Inconclusive results (about 4%) are left out. Calls come from the whole dose curve; as a rule, active = well fitted activation curve with a large enough effect; inconclusive = small, poorly fitted or top-dose-only effect, or another doubt; inactive = no such curve, though single readings can be large or run the other way. Some of the results follow.

Test: Primary qHTS for Identification of Small Molecule Activators of Huntingtin-Antisense Promoter Activity; note: nearly all actives have a fitted effect of over 55% in size
Details: HEK293 HTT-AS promoter firefly luciferase reporter, 24 h; series mostly up to 57.5 µM; activity change, positive = activation: at the top concentration
Outline: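 HEK293 luciferase promoter-reporter cells (2,500/well) plated 24 h, then compounds added at up to 57.5 uM final for 24 h at 37 °C. Firefly luminescence by Dual-Glo, normalized to vehicle (0%) and zero RLU (-100%).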

Activity change, positive = activation, inactive:
CCCCSCCCNC(=O)C1CCN(Cc2nc(-c3ccc(CC)cc3)oc2C)CC1 -1.18%
Cc1cccc(N2CCN(C(=O)c3sc4nc5n(c(=O)c4c3C)CCC5)CC2C)c1 (centres undefined) -12.8%
CCOc1ccc(CCNC(=O)C(CC)n2nc(C)c3c(C)n(-c4ccccc4)nc3c2=O)cc1 (centres undefined) -14.5%
CCCCNc1ccc(C(=O)OCCN(CC)CC)cc1 -5.51%
CCOC(=O)c1c(C)[nH]c(C)c1S(=O)(=O)N1CCC(C(=O)NCc2ccc(F)cc2)CC1 -14.7%
Cc1cc(-c2ccc(S(=O)(=O)Nc3cccc(C)c3C)s2)on1 -36.1%
COc1ccc(-c2c(C#N)c(SCC(=O)Nc3ccc(C)c(C)c3)nc(C)c2C(=O)Nc2ccc(Cl)cc2)cc1 -11.2%
O=C(CSc1nnc(-c2ccccc2Br)n1-c1ccccc1)c1ccc(F)cc1 -29.1%
Cc1nc2ccn(Cc3cccnc3)c(=O)c2cc1C(=O)NCc1ccccc1 -20.6%
O=C(NC1CCCC1)c1ccc(CSc2nc3cccnc3n2Cc2cccc(F)c2)cc1 -22%
O=c1[nH]c(SCc2ccccc2)nc2c1CCCC2 1.18%
CC(C)(C)C1CCc2nc(NC(=O)c3cccc(Cl)c3)sc2C1 (centres undefined) -75.7%
COC(=O)c1ccc(OCC2c3cc(OC)c(OC)cc3CCN2C(=O)c2ccc(OC)cc2)cc1 (centres undefined) -24.5%
Cc1oc(-c2ccccc2Cl)nc1CS(=O)CC(=O)N1CCN(c2cccc(C(F)(F)F)c2)CC1 (centres undefined) -38.2%
Cn1nnnc1SCCCNCc1cc(Br)ccc1OCc1ccccc1 -18.6%
Cc1nc2sccn2c(=O)c1S(=O)(=O)Nc1ccc(N2CCN(C)CC2)cc1 -0.426%
COc1cc2c(cc1OC)-c1cc(=Nc3c(C)cc(C)cc3C)n(C)c(=O)n1CC2 -20.6%
CCCOc1cccc(C(=O)Nc2cc(-c3nc4ccccc4[nH]3)ccc2C)c1 -8.2%
CCCc1cnc2c(c1SCc1cccc(C)c1)c(=O)n(C)c(=O)n2C -28.1%
COc1cc(OC)c(NC(=O)c2sc3nc4n(c(=O)c3c2C)CCCC4)cc1Cl 1.89%
COc1ccc(S(=O)(=O)NCCc2sc(C)nc2C)cc1 -33.6%
COc1ccc(-n2c(-c3ccccc3F)nc3c(cnn3-c3ccc(C)cc3)c2=O)cc1 -42%
CCOc1cc(Cn2c(-c3ccc(O)c(OCC)c3)nc3ccccc32)ccc1O -13.8%
O=C(CC1C(=O)OCCN1Cc1ccccc1)Nc1cccc(Cl)c1 (centres undefined) -34.1%
Cc1cc(C)cc(NC(=O)c2nnn(Cc3cccc(Br)c3)c2N)c1 -29.8%
CCCCC(=O)N1CC(=O)Nc2ccc(F)cc2C1c1ccc(F)cc1 (centres undefined) 1.6%
CCn1c(CNC(=O)C23CC4CC(CC(C4)C2)C3)nnc1SCC(=O)Nc1ccc(C)cc1 -26.7%
Cc1nc2c3cccnc3nn2c(C)c1CCC(=O)NCc1ccccc1Cl -9.41%
Cc1ccc(S(=O)Cc2ccc(C(=O)NCc3ccc(OC(C)C)cc3)o2)cc1 (centres undefined) -21.1%
CCOc1ccccc1NC(=O)CSc1nc2ccccc2nc1Cc1ccc(C)cc1 -31.3%
Cc1ccc2c(Sc3ccccc3)c(C(=O)NCc3ccccc3F)[nH]c2c1 8.86%
CC(=O)c1ccc(NC(=O)c2sc(-n3nc(C)c(CCC(C)C)c3C)nc2C)cc1 9.27%
CCOC(=O)[C@H](CCc1ccccc1)N[C@H]1CCc2ccccc2N(CC(=O)O)C1=O
COc1cc(OC)c(NC(=O)Cc2c(C(=O)O)c(C)cn2C)cc1Cl -16.7%
COc1ccc(NC(=O)C2=C(C)Nc3ncnn3C2c2sccc2C)cc1 (centres undefined) -10.8%
CC(=O)N1CCCC1c1nc2ccccc2n1Cc1c(F)cccc1Cl (centres undefined) -11.9%
CCc1ccc(OCC(=O)Nc2ccc(S(=O)(=O)Nc3onc(C)c3C)cc2)cc1 -14.2%
COc1ccc(OC2CCN(S(=O)(=O)c3cccc(F)c3)CC2)cc1 -33.2%
Cc1ccc2oc(=O)n(CCNC(=O)Nc3ccccc3C)c2c1 -9.11%
Cc1ccc(CNC(=O)Cc2c(C(=O)O)c(C)cn2C)cc1 -6.14%
CCCCn1c(=O)c2oc3ccccc3c2n(CC(=O)Nc2cc(C)ccc2C)c1=O -8.3%
COc1ccc(C(=O)CSc2nc3cc(C(=O)NC4CCCC4)ccc3c(=O)n2CC2CCCO2)cc1 (centres undefined) 3.13%
Cc1ccccc1NC(=O)Nc1csc2c1CCCC2 4.34%
CCOc1ccc(CN2C(=O)c3ccccc3Sc3ccc(C(=O)NCc4ccc5c(c4)OCO5)cc32)cc1 -16.6%
COc1ccc(C)cc1NC(=O)C(NS(=O)(=O)c1cccs1)c1ccccc1 (centres undefined) -17.5%
Cc1cccc(C(=O)N2CCNC(=O)C2CC(=O)Nc2ccc(F)cc2)c1 (centres undefined) 0.299%
Cc1cccc(NC(=O)Cn2c(=O)n(CCc3ccccc3)c(=O)c3ccccc32)c1 -8.98%
COc1ccc(C2C(C(=O)Nc3ccccc3)=C(C)Nc3nc(-c4ccccc4)nn32)c(OC)c1 (centres undefined) -24.6%
CCOC(=O)c1c(C)oc2nc(C)nc(Nc3cc(C)cc(C)c3)c12 -9.11%
CC(=O)N1CCCc2cc(S(=O)(=O)N(CCN(C)C)Cc3ccccc3)ccc21 -6.75%
CCc1ccc2oc(C(=O)NCC(c3ccc(Cl)cc3)N3CCOCC3)c(C)c2c1 (centres undefined) -20.8%
CCc1cccc(C)c1NC(=O)c1cc(S(=O)(=O)N(C)Cc2ccccc2)ccc1F -46.1%
Cc1ccc(-n2ncc3c(N4CCCCC4)ncnc32)cc1Cl -84%
O=C(CSc1nc2ccccc2n1Cc1ccc(F)cc1)N1CCN(c2ccc(F)cc2)CC1 -6.84%
Cc1csc2nc(COC(=O)c3ccc(F)cc3)cc(=O)n12 -18.8%
CC(=O)Nc1ccc(NC(=O)CCc2c(C)nc3c(c(C)nn3-c3ccc(C)cc3)c2C)cc1 -6.21%
CC(=O)Nc1ccccc1-c1nc2ccccc2n(C(C)C(=O)Nc2cc(Cl)ccc2C)c1=O (centres undefined) -7.03%
CCN(CC)S(=O)(=O)c1nnc(NC(=O)COc2ccc(C)cc2)s1 -24.7%
Cc1ccc(C)c(NC(=O)CSc2nnc(CNC(=O)c3ccccc3)n2-c2ccccc2)c1 -15.4%
CCOc1ccc(NC(=O)c2ccc(CN3C(=O)C(C)=C(c4ccc(C)cc4)S3(=O)=O)cc2)cc1 -12.3%
CCC(=O)Nc1ccccc1-c1nc2ccccc2n(Cc2cccc(Br)c2)c1=O -13.7%
Cn1c(=O)c2sccc2n2c(CCCC(=O)Nc3ccc(Cl)cc3)nnc12 -5.56%
CC(C)n1c(/C=C/[C@@H](O)C[C@@H](O)CC(=O)O)c(-c2ccc(F)cc2)c2ccccc21 -7.55%
O=C(Nc1ccccc1Cl)c1ccc(F)c(S(=O)(=O)NCc2ccc(Cl)c(Cl)c2)c1 -34.5%
CCOC(=O)c1sc(N2C(=O)c3oc4cc(C)c(C)cc4c(=O)c3C2c2ccc(C)cc2)nc1C (centres undefined) -18.8%
COc1ccc(CN2CCCN(CC(=O)Nc3cc(C)ccc3C)S2(=O)=O)cc1 -15.9%
CCOC(=O)Cn1c(C2CC(=O)N(c3ccc(C)cc3)C2)nc2ccccc21 (centres undefined) -16.5%
CCC(=O)N1c2ccccc2CC1C(=O)NCCc1ccc(SC)cc1 (centres undefined) -6.8%
COCCn1c(-c2ccccc2)c(C)n2c3c(=O)n(C)c(=O)n(C)c3nc12 -22.2%
Cc1ccccc1OCCn1cc(C(=O)C2CCCCC2)c2ccccc21 -5.96%
Cc1ccc(C)c(N2CCN(C(=O)Cn3cnc4sc(C)c(S(=O)(=O)N5CCN(c6ncccn6)CC5)c4c3=O)CC2)c1 -25.7%
CCNC(=O)N1CCN(CCCC(c2ccc(F)cc2)c2ccc(F)cc2)CC1 -23%
O=[N+]([O-])c1ccc(C(c2sc3nc(-c4ccco4)nn3c2O)N2CCN(Cc3ccccc3)CC2)cc1 (centres undefined) -8.28%
Cc1cccc(N(CC(=O)NCc2ccccc2)S(C)(=O)=O)c1C 20.2% [at 11.5 µM, percent change from vehicle, -100% = no light]
Cc1ccc(C)c(NC(=O)Cn2cnc3c(oc4ccccc43)c2=O)c1 -14.1%
O=C(Nc1ccc(OCc2cc(=O)n3ccsc3n2)cc1)c1ccc(F)cc1 -8.83%
Cc1nnc(N2CCC(C(=O)NCCc3ccccc3)CC2)c2nn(-c3ccccc3)c(C)c12 -10.7%
COc1ccc(CNC(=O)CSCc2nc(-c3ccccc3F)oc2C)cc1 -15.5%
CCc1ccc(-c2nc(CN3CCC(C(=O)NCCc4ccc(C)cc4)CC3)c(C)o2)cc1 -6.19%
C=CC(=O)Nc1cc(NC(=O)c2ccc(C)c(NC(=O)c3ccno3)c2)cc(C(F)(F)F)c1 -28.1%
COc1ccc(NC(=O)C(c2ccccc2)N2Cc3ccccc3C2=O)cc1 (centres undefined) -3.19%
Cc1cc(C)c2c(=O)cc(C(=O)Nc3ccc(C)c(Cl)c3)oc2c1 6.37% [at 11.5 µM, percent change from vehicle, -100% = no light]
Cc1ccc(C)c(NC(=O)CSc2nnc(NC(=O)Nc3ccccc3)s2)c1 2.83%
CCN1CCN(Cc2nc3cc(NC(=O)c4cccc([N+](=O)[O-])c4)ccc3n2CC)CC1 -5.5%
COc1ccc(C2CC(=O)Nc3cc4c(cc32)OCO4)c(OC)c1 (centres undefined) -41.2%
CCc1ccc(NC(=O)Cn2c(C(=O)OC)cc3oc(C)cc32)cc1 -10.6%
CCOC(=O)N1CCC(NC(=O)c2ccc3c(c2)N(Cc2ccc(F)cc2)C(=O)c2ccccc2S3=O)CC1 (centres undefined) -40.1%
COc1ccc(CCNC(=O)c2nc(SCc3ccc(F)cc3)ncc2Cl)cc1OC -38.5%
Cc1ccc(CCNC(=O)C(C)n2nc(C)c3c(C)n(-c4ccc(C)cc4)nc3c2=O)cc1 (centres undefined) -48%
CCCCCCC(=O)Nc1cc2nc3c(nc2cc1C)c(=O)n(C)c(=O)n3C 4.53%
COc1ccc(NC(=O)CN2CCN(C3CCCCC3)C(=O)C2=O)cc1 -8.5%
CCc1ccc(C2CC(=O)c3c([nH]c(C(=O)OC4CCCCCC4)c3C)C2)cc1 (centres undefined) -12.1%
CCOC(=O)c1c(C)[nH]c(C)c1S(=O)(=O)NCC(=O)Nc1cc(Cl)ccc1OC 2.22%
CC(C)C[C@H](CC(=O)O)C(=O)N[C@@H](Cc1c[nH]c2ccccc12)C(=O)N[C@@H](C)c1ccccc1 -9.91%
